Test results published in the antibiotic and cytotoxicity screens of Wong et al. (2023).
The other results are listed elsewhere or left out.

test system: S. aureus RN4220; assay: growth inhibition call (relative growth <= 0.2); conditions: 50 µM

Growth inhibition call, inactive:
C[C@@H]1CN([C@H](C)CO)C(=O)c2cc(NC(=O)Cn3cnnn3)ccc2O[C@H]1CN(C)S(=O)(=O)c1ccc(F)cc1
CO[C@H](CN(C)C(=O)Nc1ccc(C(F)(F)F)cc1)[C@@H](C)CN(Cc1ccccc1Cl)[C@@H](C)CO
COc1ccc(NC(=O)Nc2ccc3c(c2)C(=O)N([C@H](C)CO)C[C@H](C)[C@@H](CN(C)Cc2ccc(Cl)c(Cl)c2)OCCCC[C@@H](C)O3)cc1
OC[C@H]1O[C@@H](n2cnc3c(NC4CCCC4)ncnc32)[C@H](O)[C@@H]1O
C[C@H](CO)N1C[C@H](C)[C@@H](CN(C)Cc2ccc(Oc3ccccc3)cc2)Oc2ccc(NS(=O)(=O)c3ccc(Cl)cc3)cc2C1=O
CN(C)CCN(Cc1ccc(Cl)cc1)c1ccccn1.Cl
C[C@@H]1CCCCO[C@@H](CN(C)C(=O)Nc2ccccc2)[C@@H](C)CN([C@H](C)CO)C(=O)c2cc(NC(=O)Nc3cccc4ccccc34)ccc2O1
C#CCN1C(=O)N(C(=O)c2ccccc2)[C@@]2(COCc3ccc(OC)cc3)Oc3ccccc3[C@@H]1[C@H]2CO[Si](C)(C)C(C)(C)C
CC(=O)N[C@H]1[C@H](O[C@@H]2[C@@H](O)[C@H](C)O[C@@H](Oc3ccc4c(=O)c(-c5ccc(O)cc5)coc4c3)[C@@H]2O)O[C@H](CO)[C@@H](O[C@@H]2O[C@@H](C)[C@H](O)[C@@H](O)[C@H]2O)[C@@H]1O
O=C(C1=C[C@@H](c2ccc(Br)cc2)C[C@@H](OCc2ccc(CO)cc2)O1)N1CCN(Cc2ccccc2)CC1
